# Laboratory results taken from PubChem BioAssay (Tox21).
# Inconclusive results, whose numbers are uncertain, are shown with a selection of clear calls. For some of these results: Where the call is inconclusive, the potency comes from a doubtful curve fit. Some structures have more than one record in an assay (separate samples or runs), and their calls can disagree. Active and inactive are the calls of the source. Unless noted, calls follow the shape of the dose curve; as a rule, active = well fitted curve in the direction sought with a large enough effect in the repeat runs; inconclusive = weak or mixed curves; inactive = no such curve, though single readings can be large; an effect the other way counts as inactive or inconclusive.
# How the values were obtained:
# [1] = qHTS assay to identify small molecule agonists of the constitutive androstane receptor (CAR) signaling pathway - cell viability counter screen (AID 1224836); also: % is scaled to controls: 0 for no effect and ±100 for the full control effect; nearly all actives have a fitted effect of over 45% in size
# How it was run: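 Cells were seeded and incubated 4 hrs. Compounds were added across 15 concentrations together with PK11195 at 0.75 uM final. Plates were incubated 23 hrs at 37 C. CellTiter-Fluor was added and fluorescence measured.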
# [2] = qHTS assay for identifying genotoxic compounds that show differential cytotoxicity against isogenic chicken DT40 cell lines with known DNA damage response pathways - Rad54/Ku70 mutant cell line (AID 743015); settings: DT40 Rad54/Ku70 mutant viability, CellTiter-Glo, 40 h; activity change, negative = cytotoxicity: at 66.8 µM (top of the series) unless noted; also: potency is read from the fitted curve at half-maximal effect; nearly all actives have a fitted effect of over 60% in size
# [3] = biological target: Luciferin 4-monooxygenase (Photinus pyralis) (UniProt P08659); assay: qHTS assay to identify small molecule inhibitors of firefly luciferase (AID 1224835); also: nearly all actives have a fitted effect of over 25% in size; also: potency is read from the fitted curve at half-maximal effect
# How it was run: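 Inhibition of purified Photinus luciferase is measured by luminescence. Substrate levels (D-luciferin, ATP) sit at their KM values. Each compound is tested in a concentration series.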
# [4] = qHTS assay to identify small molecule agonists of H2AX (AID 1224845; active = well fitted activation curve with a large enough effect in the signal ratio in the repeat runs, not every such curve was filed as active; inconclusive = weak or mixed curves; the % refers to the signal ratio; also: potency is read from the fitted curve at half-maximal effect); settings: CHO-K1 phospho-H2AX Ser139 HTRF, 3 h; activation (H2AX phosphorylation): at 154 µM (top of the series) unless noted
# How it was run: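 Phospho-H2AX Ser139 measured by HTRF (ex 320 nm; em 665 and 620 nm) after 24 hr antibody incubation. Compounds, 15 concentrations, 0.76% DMSO, were applied to CHO-K1 cells for 3hr at 37C before lysis.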
# [5] = qHTS RealTime-Glo MT Cell Viability Assay in HEK293 cells - 32 hour (AID 1224868); also: nearly all actives have a fitted effect of over 50% in size; also: potency is read from the fitted curve at half-maximal effect
# How it was run: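 Luminescence generated by NanoLuc from substrate produced by living HEK293 cells served as the viability signal. Each value reflects the reading at its stated time point during continuous 40 h compound exposure at 37 C.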
# [6] = Human pregnane X receptor (PXR) small molecule agonists, qHTS cell viability counter screen (AID 1346977); also: nearly all actives have a fitted effect of over 50% in size; also: potency is read from the fitted curve at half-maximal effect; as to activity change, negative = cytotoxicity: % is scaled to controls: 0 for no effect and ±100 for the full control effect
# How it was run: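 Cytotoxicity counter screen run in the same wells as the PXR luciferase assay, using PXR-Luc HepG2 cells in charcoal-stripped serum medium. Viability: CellTiter-Fluor fluorescence after 24hr compound treatment.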
# [7] = biological target: Cytochrome P450 2D6 (Homo sapiens) (UniProt P10635); assay: Cytochrome P450 Family 2 Subfamily D Member 6 (CYP2D6) small molecule antagonists: luciferase reporter qHTS assay (AID 1671196); also: potency is read from the fitted curve at half-maximal effect; nearly all actives have a fitted effect of over 50% in size
# How it was run: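 Enzyme and proluciferin substrate were first combined with test chemical for 10 min at room temperature. Adding NADPH regeneration solution started a 1 h reaction, stopped with luciferin detection reagent and read by luminescence 20 min later.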
# [8] = qHTS assay to identify small molecule agonists of H2AX - cell viability counter screen (AID 1224847; calls by dose curve; also: nearly all actives have a fitted effect of over 30% in size; also: potency is read from the fitted curve at half-maximal effect)
# How it was run: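 Cytotoxicity counter screen in wild-type CHO-K1 cells: a 3 hr compound treatment at 37C across 15 concentrations, followed by CellTiter-Glo luminescence to gauge viable cells.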
# [9] = biological target: Estrogen receptor (Homo sapiens) (UniProt P03372); assay: qHTS assay to identify small molecule antagonists of the estrogen receptor alpha (ER-alpha) signaling pathway (AID 743069; active = well fitted curve in the direction sought with a large enough effect in the signal ratio in the repeat runs, not every such curve was filed as active; inconclusive = weak or mixed curves, or effect the other way; inactive = no such curve, though single readings can be large or run the other way; the % refers to the signal ratio; also: % is scaled to controls: 0 for no effect and ±100 for the full control effect); settings: HEK293 ER-alpha-UAS-bla, beta-lactamase ratio, antagonist mode; activity, negative = inhibition: at 69.4 µM (top of the series) unless noted
# How it was run: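 Fluorescence intensity from a beta-lactamase FRET substrate served as the read-out. Cells: HEK293 with stably integrated ER-alpha-UAS-bla reporter. Agonist 17beta-estradiol was co-added with compounds; incubation 18 hr at 37C, substrate 2 hr at room temperature.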
# [10] = biological target: Nuclear receptor subfamily 1 group I member 3 (Homo sapiens) (UniProt Q14994); assay: qHTS assay to identify small molecule agonists of the constitutive androstane receptor (CAR) signaling pathway (AID 1224839); also: potency is read from the fitted curve at half-maximal effect; nearly all actives have a fitted effect of over 15% in size
# How it was run: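 Cells were plated and incubated 4 hrs, then dosed with compounds at 15 concentrations. PK11195 was added to 0.75 uM final. After 24 hrs at 37 C, luciferase luminescence was measured.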
# [11] = qHTS assay to identify small molecule antagonists of the estrogen receptor alpha (ER-alpha) signaling pathway - cell viability counter screen (AID 743074; calls by dose curve; also: potency is read from the fitted curve at half-maximal effect; nearly all actives have a fitted effect of over 45% in size)
# [12] = biological target: Peroxisome proliferator-activated receptor delta (Homo sapiens) (UniProt Q03181); assay: qHTS assay to identify small molecule agonists of the peroxisome proliferator-activated receptor delta (PPARd) signaling pathway (AID 743212; calls by dose curve;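 also: HEK293H cells with PPARd UAS beta-lactamase reporter GeneBLAzer system; % is scaled to controls: 0 for no effect and ±100 for the full control effect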); settings: HEK293H PPARd-UAS-bla, beta-lactamase FRET ratio, 17 h; activation: at 62.6 µM (top of the series) unless noted
# How it was run: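 Steps: seed PPARd-bla HEK293H cells; incubate 5 h, 37 C, 5% CO2; add compounds in DMSO; incubate, 37 C; add LiveBLAzer B/G FRET substrate; hold 2 h at room temperature; measure fluorescence.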
# [13] = qHTS assay to identify small molecule antagonists of the peroxisome proliferator-activated receptor delta (PPARd) signaling pathway - cell viability counter screen (AID 743213); settings: PPARd-bla HEK293H viability, CellTiter-Glo luminescence, 17 h; also: % is scaled to controls: 0 for no effect and ±100 for the full control effect; nearly all actives have a fitted effect of over 50% in size
# How it was run: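 In this counter screen, HEK293H cells carrying a UAS-beta-lactamase reporter are co-treated with test compounds and 300 nM L165041 (final) for 17 h at 37 C; cell viability is quantified by CellTiter-Glo luminescence.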
# [14] = biological target: Vitamin D3 receptor (Homo sapiens) (UniProt P11473); assay: qHTS assay to identify small molecule agonists of the vitamin D receptor (VDR) signaling pathway (AID 743222; calls by dose curve; also: % is scaled to controls: 0 for no effect and ±100 for the full control effect); settings: HEK293T VDR-UAS-bla, beta-lactamase FRET ratio, 16 h; activation: at 63.5 µM (top of the series) unless noted
# How it was run: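 Cells carrying a VDR-driven beta-lactamase reporter are seeded at 2,000 per well and rested 4 h. Compounds in DMSO are added for 16 h at 37C, and FRET substrate fluorescence is measured after 2 h at room temperature.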
# [15] = qHTS assay to identify small molecule antagonists of the sonic hedgehog signaling (Shh) pathway (AID 1259369; calls by dose curve; also: potency is read from the fitted curve at half-maximal effect; nearly all actives have a fitted effect of over 45% in size)
# How it was run: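 Cells are plated and held 4hr at 37 C, compounds (DMSO) are pinned in, conditioned medium is added to stimulate the pathway, and after 24hr luciferase reagent is added for 30min before luminescence is read.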
# [16] = qHTS assay to identify small molecule agonists of the estrogen receptor beta (ER-beta) signaling pathway - cell viability counter screen (AID 1259380); also: % is scaled to controls: 0 for no effect and ±100 for the full control effect; nearly all actives have a fitted effect of over 30% in size
# How it was run: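 Cytotoxicity is measured in parallel with the reporter screen: after 16 hr compound exposure at 37C and a 2 hr LiveBLAzer step, CellTiter-Glo is added to the same ER-beta-UAS-bla HEK293T wells and luminescence read after 30 min.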
# [17] = qHTS assay to identify small molecule antagonists of the progesterone receptor (PR) signaling pathway - cell viability counter screen (AID 1346798)
# How it was run: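 Counter screen for cytotoxicity: viability of PR-UAS-bla HEK293T cells was measured with CellTiter-Glo luminescence following 16 hr compound exposure in the presence of R5020.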
# Tags tell the direction and shape of the fitted curve or compound fluorescence and quenching.
# Sequence of UniProt P08659 (P08659 whole entry, looked up): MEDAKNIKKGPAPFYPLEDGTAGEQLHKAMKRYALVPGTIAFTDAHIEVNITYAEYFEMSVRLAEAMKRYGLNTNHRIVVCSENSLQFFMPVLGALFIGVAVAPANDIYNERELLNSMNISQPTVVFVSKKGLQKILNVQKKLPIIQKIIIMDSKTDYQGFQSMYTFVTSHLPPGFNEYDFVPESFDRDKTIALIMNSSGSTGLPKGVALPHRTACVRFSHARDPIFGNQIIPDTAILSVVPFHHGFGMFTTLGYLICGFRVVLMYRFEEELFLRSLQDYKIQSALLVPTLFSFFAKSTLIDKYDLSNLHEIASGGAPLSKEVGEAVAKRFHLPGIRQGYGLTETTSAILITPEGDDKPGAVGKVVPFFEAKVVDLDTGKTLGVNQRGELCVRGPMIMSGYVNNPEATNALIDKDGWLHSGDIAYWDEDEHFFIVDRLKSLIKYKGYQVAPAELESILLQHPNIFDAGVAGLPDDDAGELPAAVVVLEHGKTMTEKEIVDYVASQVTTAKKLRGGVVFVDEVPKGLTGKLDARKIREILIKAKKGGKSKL
# Sequence of UniProt P10635 (P10635 whole entry, looked up): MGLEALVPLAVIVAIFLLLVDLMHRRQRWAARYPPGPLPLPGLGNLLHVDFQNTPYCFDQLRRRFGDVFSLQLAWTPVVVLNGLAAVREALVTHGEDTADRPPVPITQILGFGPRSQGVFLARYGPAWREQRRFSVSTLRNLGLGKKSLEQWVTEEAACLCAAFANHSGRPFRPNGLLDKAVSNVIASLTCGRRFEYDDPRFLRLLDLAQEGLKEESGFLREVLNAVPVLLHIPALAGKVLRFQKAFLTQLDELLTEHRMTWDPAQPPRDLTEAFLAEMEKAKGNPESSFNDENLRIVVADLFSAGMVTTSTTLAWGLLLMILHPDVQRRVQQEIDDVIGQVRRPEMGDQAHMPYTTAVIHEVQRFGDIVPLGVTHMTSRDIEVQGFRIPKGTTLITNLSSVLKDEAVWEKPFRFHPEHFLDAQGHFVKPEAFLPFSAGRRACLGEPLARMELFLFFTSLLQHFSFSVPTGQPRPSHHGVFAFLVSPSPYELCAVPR
# Sequence of UniProt P11473 (P11473 whole entry, looked up): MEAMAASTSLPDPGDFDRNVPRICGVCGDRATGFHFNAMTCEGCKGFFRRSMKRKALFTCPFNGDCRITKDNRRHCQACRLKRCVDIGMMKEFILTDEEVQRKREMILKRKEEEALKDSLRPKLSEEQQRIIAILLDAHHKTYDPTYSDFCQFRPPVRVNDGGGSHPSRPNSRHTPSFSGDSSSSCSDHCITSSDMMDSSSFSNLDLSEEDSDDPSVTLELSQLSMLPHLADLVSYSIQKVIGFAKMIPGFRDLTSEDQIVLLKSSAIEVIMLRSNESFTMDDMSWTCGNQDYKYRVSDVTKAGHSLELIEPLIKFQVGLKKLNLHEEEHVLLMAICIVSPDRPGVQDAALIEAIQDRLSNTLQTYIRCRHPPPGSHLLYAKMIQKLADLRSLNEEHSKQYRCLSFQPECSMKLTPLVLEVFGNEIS
# Sequence of UniProt Q03181 (Q03181 whole entry, looked up): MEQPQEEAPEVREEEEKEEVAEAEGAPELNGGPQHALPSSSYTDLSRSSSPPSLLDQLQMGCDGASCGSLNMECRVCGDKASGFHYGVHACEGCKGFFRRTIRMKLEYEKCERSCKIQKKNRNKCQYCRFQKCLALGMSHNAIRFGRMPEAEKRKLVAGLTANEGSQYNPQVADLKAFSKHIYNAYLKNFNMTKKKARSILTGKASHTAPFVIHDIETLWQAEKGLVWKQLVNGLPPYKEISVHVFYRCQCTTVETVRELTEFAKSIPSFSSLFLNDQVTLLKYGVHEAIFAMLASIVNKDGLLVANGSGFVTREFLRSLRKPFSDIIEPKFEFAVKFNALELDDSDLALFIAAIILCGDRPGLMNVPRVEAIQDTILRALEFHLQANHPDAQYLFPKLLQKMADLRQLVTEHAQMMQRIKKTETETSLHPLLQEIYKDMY
# Sequence of UniProt P03372 (P03372 whole entry, looked up): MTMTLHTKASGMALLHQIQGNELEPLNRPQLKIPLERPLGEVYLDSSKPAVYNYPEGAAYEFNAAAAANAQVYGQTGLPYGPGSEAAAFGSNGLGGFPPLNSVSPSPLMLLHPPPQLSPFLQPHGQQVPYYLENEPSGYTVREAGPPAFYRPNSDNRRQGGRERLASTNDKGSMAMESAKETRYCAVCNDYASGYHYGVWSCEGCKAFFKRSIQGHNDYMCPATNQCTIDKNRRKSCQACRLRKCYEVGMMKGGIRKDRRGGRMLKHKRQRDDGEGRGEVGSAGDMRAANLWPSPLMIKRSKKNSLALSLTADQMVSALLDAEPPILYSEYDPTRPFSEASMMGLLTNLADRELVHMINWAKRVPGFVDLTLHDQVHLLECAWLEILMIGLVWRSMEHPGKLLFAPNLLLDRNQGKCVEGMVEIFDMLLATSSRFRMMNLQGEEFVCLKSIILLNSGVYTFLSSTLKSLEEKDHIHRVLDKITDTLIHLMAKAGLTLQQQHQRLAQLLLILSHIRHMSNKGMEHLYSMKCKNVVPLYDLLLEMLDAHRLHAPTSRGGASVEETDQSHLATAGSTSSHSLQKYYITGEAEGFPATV
# Sequence of UniProt Q14994 (Q14994 whole entry, looked up): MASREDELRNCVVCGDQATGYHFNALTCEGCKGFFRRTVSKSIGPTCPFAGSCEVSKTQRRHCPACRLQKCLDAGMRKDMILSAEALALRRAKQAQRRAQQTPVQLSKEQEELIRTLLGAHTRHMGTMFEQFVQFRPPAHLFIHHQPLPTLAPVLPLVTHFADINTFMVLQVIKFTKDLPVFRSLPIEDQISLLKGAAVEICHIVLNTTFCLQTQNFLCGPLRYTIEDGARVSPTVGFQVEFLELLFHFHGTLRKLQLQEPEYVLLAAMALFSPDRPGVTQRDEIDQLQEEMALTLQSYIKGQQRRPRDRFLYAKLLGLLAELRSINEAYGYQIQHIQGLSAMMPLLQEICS
structure (smiles),measurement,setting,value
O=c1cc[nH]cc1,Potency,[1],inactive
S=c1[nH][nH]c(=S)s1,Potency,[2],"inconclusive: 68.6 µM [cytotoxic, single point]"
same,Potency,[3],active: 11.2 µM
same,Potency,[4],"inconclusive: 50.5 µM [falling, single point]"
same,Potency,[5],"inconclusive: 27.5 µM [rising, partial curve]"
same,Potency,[6],"inconclusive: 38.6 µM [rising, partial curve, poor fit]"
same,Potency,[7],"inconclusive: 89.4 µM [inhibitor, partial curve, poor fit]"
COC(C)(C)CCCC(C)CC=O (configuration not stated),Potency,[1],inactive
same,Potency,[8],"inconclusive: 2.01 µM [cytotoxic, single point]"
CCOC(=S)SSC(=S)OCC,Potency,[3],"inconclusive: 20 µM [inhibitor, full curve]"
same,Potency,[7],"inconclusive: 56.4 µM [inhibitor, partial curve]"
c1ccc(CCCc2ccccn2)cc1,Potency,[9],inactive
same,Potency,[3],active: 31.7 µM
same,Potency,[10],"inconclusive: 30.6 µM [activator, partial curve]"
same,Potency,[8],"inconclusive: 1.6 µM [cytotoxic, single point]"
same,Potency,[7],"inconclusive: 63.3 µM [inhibitor, partial curve]"
Clc1cc(Cl)c(Cl)c(Cl)c1Cl,Potency,[9],inactive
same,Potency,[1],inactive
NNC(=O)c1ccncc1,Potency,[2],"inconclusive: 28.7 µM [cytotoxic, single point]"
same,Potency,[11],"inconclusive: 21.9 µM [rising, single point]"
same,Potency,[12],inactive
same,"viability change, negative = cytotoxic",[13]; at 28.9 µM (top of the series),inactive: 4.78%
same,"viability change, negative = cytotoxic",[13]; at 80.4 µM (top of the series),inactive: 0.506%
same,"viability change, negative = cytotoxic","[13]; viability change, negative = cytotoxic: at 62 µM (top of the series) unless noted",inconclusive: 15.1% [cytotoxic]
same,Potency,[14],inactive
same,Potency,[3],inactive
same,Potency,[5],inactive
same,Potency,[15],"inconclusive: 28.7 µM [inhibitor, single point]"
same,Potency,[16],inactive
same,Potency,[6],inactive
same,Potency,[7],"inconclusive: 23.6 µM [inhibitor, partial curve, poor fit]"
CN(C(=O)C(Cl)Cl)c1ccc(OC(=O)c2ccco2)cc1,Potency,[2],"inconclusive: 33.5 µM [cytotoxic, single point]"
same,Potency,[3],"inconclusive: 38.9 µM [inhibitor, partial curve]"
same,Potency,[17],inactive
CC(CC(C)(C)C)CC(C)(C)CC(C)(C)C (configuration not stated),Potency,[3],inactive
same,Potency,[8],inactive
same,Potency,[16],inactive
